Measured values reported in the supplement of paper PMC3334620.
Over roughly 33,000 sequences, “E-score (-0.5 to 0.5)” has its median near -0.012; the highest 2% begin near 0.27. The list shows a part of the results.

What follows are sequences tested against T1, Vhr1 (UniProt P40522) (assay: PBM E-score (8-mer binding enrichment) (E-score (-0.5 to 0.5)); higher = stronger / more preferred TF binding; most listed sequences are background and not binding sites). Conditions: protein concentration: 200 nM; construct: GST-full length.
T1 sequence: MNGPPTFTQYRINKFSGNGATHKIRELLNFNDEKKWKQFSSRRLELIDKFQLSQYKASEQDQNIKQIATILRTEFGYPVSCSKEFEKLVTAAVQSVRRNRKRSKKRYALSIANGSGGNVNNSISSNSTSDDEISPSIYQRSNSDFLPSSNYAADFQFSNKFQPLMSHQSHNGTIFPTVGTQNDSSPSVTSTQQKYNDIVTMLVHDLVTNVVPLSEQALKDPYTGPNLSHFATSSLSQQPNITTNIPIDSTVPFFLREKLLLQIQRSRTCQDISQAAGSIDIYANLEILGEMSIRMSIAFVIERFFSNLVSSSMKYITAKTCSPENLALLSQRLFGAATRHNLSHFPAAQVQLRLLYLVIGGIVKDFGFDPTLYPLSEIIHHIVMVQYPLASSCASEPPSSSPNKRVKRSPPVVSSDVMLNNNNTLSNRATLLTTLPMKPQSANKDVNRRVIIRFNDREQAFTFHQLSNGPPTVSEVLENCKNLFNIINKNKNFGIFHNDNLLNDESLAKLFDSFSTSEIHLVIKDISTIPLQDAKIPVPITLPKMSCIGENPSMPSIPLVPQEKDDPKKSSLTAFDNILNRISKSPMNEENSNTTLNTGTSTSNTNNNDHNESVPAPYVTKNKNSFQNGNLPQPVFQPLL
Protocol: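 Universal 'all 10-mer' protein binding microarrays (Agilent AMADID 015681) probed with GST-tagged S. cerevisiae TFs (full-length or DBD) made by in vitro transcription/translation (PURExpress), about 100-200 nM. Bound TF was detected with fluorescent anti-GST. Each ungapped 8-mer (which stands for itself and its reverse complement) is scored by the PBM enrichment score (E-score), a modified Wilcoxon-Mann-Whitney statistic from -0.5 to +0.5, computed with the Universal PBM Analysis Suite. Scale: above 0.35 generally sequence-specific binding.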

Sequence	PBM E-score
GCCGTTGA	0.0609
GCTTATGA	-0.101
GTTGTACA	-0.0526
GGCCATGA	0.136
TCTTTTAA	-0.286
CTCTCCAA	0.064
ATGGCACA	-0.0192
CCGTTGAG	-0.162
AGTTGGGC	0.159
GGTTTTTA	-0.0977
GACCGAAA	-0.034
CCGCGGGA	0.213
ACCGTAAG	-0.08
AAGTCTCG	-0.257
CAAAAGTA	-0.202
ACTAACTA	0.112
CCGGAGGA	-0.0305
ATGGGCTA	0.0163
ACACGGCC	0.0168
CCAACCAA	-0.0857
CGCTGAGC	0.00537
CCTACGAC	0.0977
TCGTAAAA	-0.175
CTATGGCA	-0.132
TCATGCCA	0.0541

Sequence	PBM E-score
CAGCCCTC	-0.133
AGGCGGTG	0.0779
ACTAGCCG	-0.0659
CCTCTGCA	-0.109
GGAGGAAC	-0.154
CGGTCAAA	-0.0217
ATAAGGCG	-0.0195
AGCTCAAA	-0.0815
CGACGTGA	0.0649
ATCTCAAG	-0.0114
AGGCTTGA	-0.0908
CAAGACTC	0.295
CCGGTCAA	-0.116
CGGCACCC	-0.117
CATCGCGA	0.0654
CCAGTTCA	-0.00903
GAGGATAC	-0.162
CCTCAGTA	-0.106
AATCATTA	0.222
CAGGTGGC	0.072
ATAGTTGC	0.127
ACTTGAAT	-0.0462
ACCAGCCG	0.135
CGTAGTCA	0.372
TACAGAAA	0.0107

Sequence	PBM E-score
CGACCTCC	0.163
AGGGGAAG	0.00899
CCTGTGTC	0.192
CGTAGTAC	0.023
GATCGGGA	-0.124
CTAAATAG	-0.015
AGTCAATG	0.129
AAAGGGGT	-0.181
CCTACTTC	-0.0854
ATATACAC	0.158
AACAACGG	-0.0109
CCGCTCAA	-0.061
GCCTCCGA	-0.0639
ATCAGCGC	-0.0706
AGACACTG	0.116
CTGCATCA	0.176
CAGCCCCC	-0.2
CTGGGAGA	-0.0702
AGCTGGGG	0.0821
GTACCGAA	-0.238
CGCACCAA	0.143
ACGAATTC	-0.13
GGGATCGA	0.105
ACCGTACC	-0.0234
GTCCATCA	-0.104

Sequence	PBM E-score
GTAAGGCA	-0.0893
AGGTCCCG	-0.00127
CACGGCTG	-0.0137
CCCCCGGC	0.1
ATATGGAG	0.0345
GATCCCGA	0.126
ATGCAGAG	-0.0311
ATGGCGAA	0.0912
GACAACTC	0.077
ACCCCCTC	-0.281
CCATGGTC	0.149
AAAAACAA	-0.0531
CGTCCTCA	-0.101
GGCTGAGA	0.0217
CGAGCACA	0.119
GAATGTAA	-0.0483
CGCGCTAA	0.221
AGCCTTTG	-0.12
AACGGAAT	-0.0689
ACAGCCGA	-0.16
ACGTAGCA	0.0758
AAGGTTAA	-0.24
CGACGACC	0.00875
CGCCTTCC	-0.172
ATTCCAAC	0.0512

Sequence	PBM E-score
GCCCGGCC	-0.00271
AAACATTC	-0.172
GGCGGATA	0.0479
AGATTAGG	-0.104
GCCAACCA	-0.199
CGTGCGTA	-0.0417
AGCCGGAA	0.0165
CATTAGCA	-0.152
TGACCTAA	-0.021
AGGTGACT	0.425
CTTTCCGC	-0.224
GCAGATCC	0.064
CCACATTC	0.1
AGGGGGCC	-0.212
CTAAGATC	-0.0048
CCCAATAG	-0.0738
AGCGTTTC	-0.221
GCGTCCGA	0.0308
GGTAGGTA	0.0727
ATCCTGTG	0.104
GATAGACA	0.165
CCAGTCGG	0.0956
ATGGGCGG	0.237
AATAATTA	0.0796
AAGTATGG	0.142

Sequence	PBM E-score
ATTAGTAC	0.142
CAGGTAAC	-0.00196
CGTATCTA	0.199
ACAGAAAC	0.0542
CCCTCAAC	-0.246
CGATATCG	-0.0182
AGATGAGG	-0.182
AGGAGTGC	-0.046
GAAACCTC	-0.0997
AAGAAAGA	-0.19
CTAGAAAC	-0.252
GGTGCCGA	-0.0472
ACGGTCGG	0.0799
TGATCGCA	-0.0688
ATCTGACA	-0.0887
AGCTCTCG	-0.158
CCATGTAG	0.00387
AATGCCCT	-0.229
ATAGCTTC	-0.214
GATACTAC	0.112
CTCGGGTC	-0.0496
AGGAGGCC	-0.309
GAATATAA	-0.0256
CGGTAATA	0.112
CCTCTCCG	-0.235

Sequence	PBM E-score
AGTGACAA	0.0325
AGTAGGCA	0.154
ACGACTCG	0.327
TCACGACA	0.0788
TTACGAAA	-0.267
AAGCCATT	0.0335
AACTATTG	0.13
AGTAACCC	0.131
CCCAAAGC	-0.248
CCAGCCAC	0.111
ATTATTGA	0.036
GAGCCTAC	0.0254
ATGAAACG	-0.0278
CCCCGTAA	0.0107
GAAAAGTC	-0.19
AAGAGAGG	-0.2
AAATGTTG	-0.291
TACATGGA	0.0672
AGAATGCT	-0.049
CCTCTCAG	-0.27
GACTCCGC	0.38
GGCGCTAA	-0.112
